Assay results published in the supplement of paper PMC12217912.
The list shows a part of the results. Sequences were assembled here from the parent chain. Values near 0.05 are background.

B1: TEV protease; numbered along this chain (parent)
chain: MGESLFKGPRDYNPISSSICHLTNESDGHTTSLYGIGFGPFIITNKHLFRRNNGTLVVQSLHGVFKVKDTTTLQQHLVDGRDMIIIRMPKDFPPFPQKLKFREPQREERICLVTTNFQTKSMSSMVSDTSCTFPSGDGIFWKHWIQTKDGQCGSPLVSTRDGFIVGIHSASNFTNTNNYFTSVPKNFMELLTNQEAQQWVSGWRLNADSVLWGGHKVFMVKPEEPFQPVKEATQL

Variants of: B1
Assay: raw area under fraction-flipped curve 0-4 h after induction (AUC4h, not background-subtracted), DNA-recorder readout of cleavage of the substrate (dimensionless); higher = more cleavage of the substrate by the protease variant
Conditions: temperature: 34 °C; time window: 0-4 h after rhamnose induction
Description: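 In vivo DNA recorder in E. coli TOP10(DE3) ΔrhaA at 34 °C. Each TEVp single-site mutant (parent TEVp 0) is paired with a single-site variant of the 7-mer TEVs (canonical ENLYFQ|S). The substrate sits between flexible linkers in a Bxb1-sfGFP-TEVs-SsrA fusion, so cleavage stabilises Bxb1 and speeds flipping of a recombination array, read by NGS. The value is the raw area under the fraction-flipped curve over 0-4 h after rhamnose induction (AUC4h), with ≥20 reads per time point. It is not background-subtracted; inactive controls average about 0.047.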
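Further: Bxb1 expression induced with 0.2% (w/v) L-rhamnose at OD600 near 0.5, cultures sampled hourly, flipped fraction per protease–substrate barcode pair counted by paired-end Illumina sequencing.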

| Variant | area with substrate EALYFQS | area with substrate ECLYFQS | area with substrate EDLYFQS | area with substrate EELYFQS | area with substrate EGLYFQS | area with substrate EHLYFQS | area with substrate EILYFQS | area with substrate ELLYFQS | area with substrate ERLYFQS | area with substrate ESLYFQS | area with substrate EVLYFQS | area with substrate EWLYFQS | area with substrate EYLYFQS | area with substrate EFLYFQS | area with substrate EMLYFQS | area with substrate EPLYFQS | area with substrate EQLYFQS | area with substrate EKLYFQS | area with substrate ETLYFQS |
| --- | --- | --- | --- | --- | --- | --- | --- | --- | --- | --- | --- | --- | --- | --- | --- | --- | --- | --- | --- |
| Q74G | 0.148 | 0.0797 | 0.125 | 0.134 | 0.0856 | 0.131 | 0.119 | 0.0854 | 0.102 | 0.121 | 0.0919 | 0.093 | 0.125 |  |  |  |  |  |  |
| H76E | 0.111 | 0.0819 | 0.0935 | 0.0815 |  | 0.0738 | 0.0707 | 0.0606 | 0.0844 | 0.0822 | 0.0851 | 0.0826 | 0.0886 | 0.0824 | 0.0833 | 0.081 | 0.0822 |  |  |
| L77T | 0.0587 | 0.0757 |  | 0.0714 | 0.0706 |  |  | 0.0545 |  |  | 0.0664 |  |  |  |  |  |  | 0.0662 |  |
| V78A | 0.0572 | 0.054 | 0.0827 | 0.0674 | 0.0679 |  | 0.066 |  | 0.0679 | 0.0726 | 0.0832 |  | 0.0521 |  | 0.0663 | 0.0464 | 0.0888 |  | 0.074 |
| V78G | 0.073 | 0.0988 | 0.0712 | 0.0873 | 0.0585 |  | 0.0535 | 0.0616 |  | 0.0846 |  | 0.0842 |  | 0.0994 |  | 0.0942 |  | 0.0844 |  |
| D79G | 0.0994 | 0.0868 | 0.127 | 0.0941 | 0.0908 |  | 0.0786 | 0.0786 |  | 0.084 | 0.124 |  | 0.0853 | 0.076 | 0.114 | 0.124 | 0.126 | 0.0653 | 0.108 |
| D79L | 0.105 | 0.109 | 0.0965 | 0.0992 |  | 0.0891 | 0.0906 |  | 0.0843 | 0.09 | 0.0792 |  |  |  |  | 0.0793 | 0.121 | 0.0812 |  |
| D79V | 0.116 | 0.0802 |  | 0.0994 | 0.0908 |  | 0.115 | 0.0475 | 0.0952 | 0.0987 | 0.0956 | 0.102 | 0.0906 |  | 0.0932 |  | 0.111 | 0.113 |  |
| G80H | 0.121 | 0.13 | 0.128 | 0.132 | 0.0403 |  | 0.102 | 0.0949 | 0.102 | 0.104 | 0.107 | 0.082 |  |  |  | 0.161 | 0.134 |  | 0.121 |
| R81G | 0.0875 | 0.101 | 0.109 |  | 0.123 |  | 0.0745 | 0.0828 | 0.0948 | 0.0944 | 0.074 |  |  |  |  |  | 0.0862 | 0.0865 |  |
| R81I | 0.151 | 0.116 | 0.119 |  | 0.0711 |  | 0.0753 | 0.0922 | 0.108 | 0.126 |  | 0.131 |  |  |  |  | 0.132 |  |  |
| I85C | 0.0876 | 0.0733 | 0.0823 | 0.113 |  | 0.0639 | 0.0693 | 0.0766 | 0.0881 | 0.0739 | 0.0846 | 0.0625 | 0.0993 |  |  |  | 0.0458 | 0.0723 |  |
| I85F | 0.103 | 0.111 | 0.15 |  |  | 0.0902 |  |  | 0.111 | 0.114 |  | 0.0813 |  |  | 0.116 |  | 0.0577 |  |  |
| I85K | 0.0552 | 0.0752 | 0.0845 | 0.0549 | 0.0511 | 0.0789 | 0.017 | 0.0691 |  | 0.0545 | 0.0842 | 0.044 | 0.0651 |  | 0.0574 | 0.0532 |  |  |  |
